Measurements as given in PubChem BioAssay (NCI).
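Growth conditions: 96-well plates. Treatment: test compound, 48 hours, 5 concentrations. Analysis: linear interpolation between bracketing concentrations; unreached endpoints set to highest concentration. The concentration for 50% growth inhibition is given as GI50.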 Certain results were filed several times, with different values. Only these are listed. There may be further records. A record mostly stands for its own series of concentrations, not given here; some values may only mark the edge of a range.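 At the TGI there is no net growth.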

Key:
Assay in all cases: NCI-60 cell line screen, 48 h
OVCAR-3 ovarian = system: OVCAR-3 ovarian
SK-MEL-28 melanoma = system: SK-MEL-28 melanoma
OVCAR-8 ovarian = system: OVCAR-8 ovarian
OVCAR-5 ovarian = system: OVCAR-5 ovarian
M14 melanoma = system: M14 melanoma
CCRF-CEM leukemia = system: CCRF-CEM leukemia
HT29 colon = system: HT29 colon
RXF 393 renal = system: RXF 393 renal
A498 renal = system: A498 renal
SK-OV-3 ovarian = system: SK-OV-3 ovarian
K-562 leukemia = system: K-562 leukemia
SF-295 CNS = system: SF-295 CNS
NCI-H226 lung = system: NCI-H226 lung
NCI/ADR-RES ovarian = system: NCI/ADR-RES ovarian
SNB-19 CNS = system: SNB-19 CNS
HCT-15 colon = system: HCT-15 colon
786-0 renal = system: 786-0 renal
KM20L2 colon = system: KM20L2 colon
SNB-75 CNS = system: SNB-75 CNS
HCC-2998 colon = system: HCC-2998 colon
SK-MEL-5 melanoma = system: SK-MEL-5 melanoma
LOX IMVI melanoma = system: LOX IMVI melanoma
NCI-H522 lung = system: NCI-H522 lung
SW-620 colon = system: SW-620 colon
SF-268 CNS = system: SF-268 CNS
SK-MEL-2 melanoma = system: SK-MEL-2 melanoma
RPMI-8226 leukemia = system: RPMI-8226 leukemia
DU-145 prostate = system: DU-145 prostate
BT-549 breast = system: BT-549 breast
MDA-MB-231 breast = system: MDA-MB-231 breast
KM12 colon = system: KM12 colon
MOLT-4 leukemia = system: MOLT-4 leukemia
HS 578T breast = system: HS 578T breast
COLO 205 colon = system: COLO 205 colon
IGROV1 ovarian = system: IGROV1 ovarian
MDA-MB-435 = system: MDA-MB-435
UACC-62 melanoma = system: UACC-62 melanoma
MCF7 breast = system: MCF7 breast

With `CN(C)CC(NC(NCS)C(=O)NCCNc1ccc(NCCNC(=O)C(NCS)NC(CN(C)C)OCCl)c2c1C(=O)c1c(O)ccc(O)c1C2=O)OCCl` (configuration not stated) the TGI (OVCAR-3 ovarian) was 1.99 µM and > 100 µM, the TGI (SK-MEL-28 melanoma) was 1.56 µM and > 100 µM and the TGI (OVCAR-8 ovarian) was 142 nM and 1.5 µM. For the same molecule, the TGI (OVCAR-5 ovarian) was 4.33 µM and > 100 µM and the TGI (M14 melanoma) was 1.63 µM and > 100 µM.

`Cc1cc(NC(=O)NC(=O)c2ccccc2NC(=O)CN)ccc1Oc1ncc(Br)cn1` was tested, and the TGI (CCRF-CEM leukemia) was 50.4 µM and 648 nM, the TGI (OVCAR-3 ovarian) was 2.86 µM and 73.4 nM and the TGI (HT29 colon) was 5.58 µM and > 100 µM. For the same molecule, the TGI (RXF 393 renal) was 2.42 µM and 51.5 nM, the TGI (A498 renal) was 3.48 µM and 99.2 nM and the GI50 (SK-OV-3 ovarian) was 29.8 nM [1 test] and 572 nM [mean of 2 tests]. For the same molecule, the TGI (K-562 leukemia) was 43.4 µM and 1.08 µM, the TGI (SF-295 CNS) was 1.51 µM and 29.9 µM and the TGI (M14 melanoma) was 15.1 µM and 1.02 µM. For the same molecule, the TGI (NCI-H226 lung) was 32.7 µM and 2.89 µM.

In the case of `CO/C(=N\N=C\c1cccc(C(F)(F)F)c1)c1ccncc1`, the TGI (NCI/ADR-RES ovarian) is reported as 4.83 µM and 52.2 µM and the TGI (SF-295 CNS) is reported as 4.76 µM and 48.2 µM.

For `COc1ccc(C2=CN3CCC[C@H]3C=C2c2cc(O)c(OC)c(OC)c2)cc1OC`, the TGI (SNB-19 CNS) was 45.3 nM and 10.2 µM, the TGI (HCT-15 colon) was 98.9 nM and 10.6 µM and the TGI (786-0 renal) was 193 nM and 18.9 nM. The TGI (KM20L2 colon) was 93.2 nM and 1.02 µM.

With `COc1ccc(-c2nc3sc4c(c3c(=O)[nH]2)CCCC4)c2ccccc12` the GI50 (CCRF-CEM leukemia) was 353 nM and 30.7 nM, the GI50 (SNB-75 CNS) was 221 nM and 20.6 nM and the GI50 (OVCAR-3 ovarian) was 289 nM and 16.7 nM. For the same molecule, the TGI (OVCAR-3 ovarian) was 785 nM and 52.6 nM, the GI50 (HCC-2998 colon) was 1.09 µM and 36.2 nM and the GI50 (SK-MEL-5 melanoma) was 372 nM and 34.9 nM. For the same molecule, the GI50 (LOX IMVI melanoma) was 606 nM and 48.1 nM, the GI50 (HT29 colon) was 362 nM and 27.2 nM and the TGI (HT29 colon) was 2.22 µM and 74.6 nM. The GI50 (HCT-15 colon) was 466 nM and 30.9 nM, the GI50 (A498 renal) was 185 nM and < 10 nM and the GI50 (NCI/ADR-RES ovarian) was 340 nM and 11 nM. The GI50 (NCI-H522 lung) was 300 nM and < 10 nM, the GI50 (SW-620 colon) was 378 nM and 34.6 nM and the GI50 (SF-268 CNS) was 884 nM and 50.3 nM. For the same molecule, the GI50 (SK-OV-3 ovarian) was 420 nM and 38.8 nM, the GI50 (SK-MEL-2 melanoma) was 343 nM and 19.2 nM and the TGI (SK-MEL-2 melanoma) was 2.04 µM and 79.5 nM. For the same molecule, the GI50 (K-562 leukemia) was 327 nM and < 10 nM, the GI50 (RPMI-8226 leukemia) was 388 nM and 37.8 nM and the GI50 (DU-145 prostate) was 446 nM and 40.4 nM. For the same molecule, the GI50 (786-0 renal) was 450 nM and 43.9 nM, the GI50 (BT-549 breast) was 811 nM and 36.1 nM and the GI50 (MDA-MB-231 breast) was 586 nM and 41.8 nM. For the same molecule, the GI50 (KM12 colon) was 396 nM and 26.7 nM, the GI50 (M14 melanoma) was 239 nM and 20.4 nM and the GI50 (MOLT-4 leukemia) was 408 nM and 36.2 nM. The GI50 (HS 578T breast) was 437 nM and 15.8 nM, the GI50 (COLO 205 colon) was 245 nM and 22.6 nM and the TGI (COLO 205 colon) was 676 nM and 55.4 nM. The GI50 (IGROV1 ovarian) was 1.86 µM and 50 nM, the GI50 (MDA-MB-435) was 154 nM and < 10 nM and the TGI (MDA-MB-435) was 331 nM and 12.2 nM. The GI50 (UACC-62 melanoma) was 440 nM and < 10 nM and the GI50 (MCF7 breast) was 1.05 µM and 35.1 nM.

`CC(=O)OC12CC(C)C3(O)C4C=C(C)C(=O)[C@@]4(O)CC(CO)=C[C@H]3C1C2(C)C` (some centres not stated) was tested, and the TGI (A498 renal) was 8.78 µM and 378 µM.
